Source: the supplement of paper PMC11417369
± gives the standard deviation of the averaged measurements. Some of the results follow.

system: PfAP2-LT AP2 domain (GST-tagged); assay: gcPBM binding intensity (ln(normalized median fluorescence intensity)); higher = stronger DNA binding
Method in brief: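 For binding intensity, the highest Masliner-normalised natural-log median intensity across replicate spots of either probe orientation was taken. Protein bound to the array was stained with Alexa488 anti-GST antibody and scanned at 488 nm. The protein, GST-tagged P. falciparum DNA-binding domains from E. coli at about 25 μg on average, had been applied for 1 h to an Agilent 4 × 180k array of primer-extended double-stranded 36-bp intergenic genomic probes and negative controls.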

| Sequence | gcPBM binding intensity (ln) |
| --- | --- |
| TAAAAAAAAACATGATGTACATAAAATTTTTTACTT [XGTACX_site7056] | 8.59 ± 0.47 |
| TACATATATTTAAGGAGTACAAAAAATAATGATAAA [XGTACX_site3539] | 8.74 ± 0.45 |
| TTATTAGAGATGTTAAGATATAGGGATAATTTCGAT [XGTACX_negctrl_site395] | 8.4 ± 0.48 |
| AAAAGGGAAAAAATTAAAATTATATATATATATATG [CACACA_negctrl_site137] | 8.52 ± 0.39 |
| ATATGTTTTAAGTGTACACATATAATGTATTTTGTT [CACACA_site4929] | 9.06 ± 0.4 |
| TTGCTCATTGAAATTATACACACCAAATATATAAAT [CACACA_site2482] | 8.74 ± 0.29 |
| AACCTATCTATAGGAACAATATATATATATATAATT [CACACA_negctrl_site1707] | 8.98 ± 0.33 |
| TATTATGCTATTTAATGTACGGAATTTATATATATA [XGTACX_site564] | 8.62 ± 0.42 |
| TTGCTTTTCATTTATTGTACATACCCAGTAGGATAA [XGTACX_site3939] | 8.62 ± 0.45 |
| GACATAGTATTAAGTTGTACATATATAAAAATAAAT [XGTACX_site1583] | 8.86 ± 0.48 |
| ATGTTTTCAAAAATAAAACATATAAATAAATAAATA [TGCATGCA_negctrl_site226] | 8.49 ± 0.55 |
| AATGTACACGCACCCACACACAAACAAATATAAATA [CACACA_site7319] | 9.79 ± 0.36 |
| TTACGAATGAATATATGTACATATATATATATATAT [XGTACX_site3790] | 9.875 ± 0.092 |
| CAACAACAAATGAGAAGTACATAAATATTAACAATA [XGTACX_site4625] | 8.9 ± 0.48 |
| TTATAATACCTACAAAGTACAAACTTAAATATGAAC [XGTACX_site5684] | 8.7 ± 0.42 |
| AAGCTTAAAAATGGGGGTACGTCATAGGGATTCAAC [XGTACX_site8080] | 9.01 ± 0.24 |
| AATATATAAACATATACACACAAAAACATATATATA [CACACA_site4855] | 9.21 ± 0.33 |
| TTTGACACAATATTTTGTACGAAACTATTAATTCAA [XGTACX_site4853] | 8.52 ± 0.52 |
| GCATACATCAAGCACACACACACACGCACACGCACA [CACACA_site6311] | 10.2 ± 0.19 |

| Sequence | gcPBM binding intensity (ln) |
| --- | --- |
| ACTACGAATGGTAGAGTGCAGTCTGGAGAAGAGTAC [GTGCAC_site9685] | 9.19 ± 0.45 |
| AAAAAAAAGAATTAGGCACACAATTTTAATATAGGA [CACACA_site1522] | 8.72 ± 0.58 |
| GTGAAGTTCAAAATATGTACTTATGTATGTATTTTT [XGTACX_site165] | 8.73 ± 0.42 |
| TTATGTTTCATAAAAAATTAATCAAACATATATAAG [CACACA_negctrl_site666] | 8.22 ± 0.46 |
| TATACATAGAAACACACACACATAAATAAATATATA [CACACA_site1342] | 9.74 ± 0.26 |
| TGGTATATAAAACACACACACATATGTATATATATA [CACACA_site926] | 9.63 ± 0.29 |
| CCTTAAATAATATATTCACACAATATAACAAAAATT [CACACA_site4892] | 8.7 ± 0.38 |
| AAAAAAAAAATTATATATATATCCCTTATTTTTTCT [TGCATGCA_negctrl_site151] | 8.56 ± 0.61 |
| CATACACAGAAACACACACACATATATACATATATA [CACACA_site1094] | 9.98 ± 0.24 |
| TCATATATATTGAAATGTACTTATTTTTTCCTCATA [XGTACX_site6526] | 8.5 ± 0.48 |
| TTACAAATGTAGAAAAGTACATATAATAATAATTTA [XGTACX_site3044] | 8.67 ± 0.44 |
| ATGGATAATAATAAGTGTACACATATATTTAGAAGA [XGTACX_site244] | 9 ± 0.45 |
| AAAAAAAAAAAAAGCACACACACATATGCGTATATA [CACACA_site953] | 9.38 ± 0.33 |
| TTTAAGCGTTCACTGCTGCACTTTTATGTTGTGACC | 9.12 ± 0.51 |
| ATTTGTATAATAAGTTGTACAATTCTTACAATATAA [XGTACX_site4164] | 8.55 ± 0.4 |
| GGTAGAAAATCAGTTAAACACACACCGAAAAAAAAA [CACACA_site8934] | 9.32 ± 0.46 |
| TAAATATAACAGAATAATATGTGGATTAATAAATGA [CACACA_negctrl_site438] | 8.71 ± 0.49 |
| ATATAATATGTTGAATGTACTTAAAAAAATGTATCT [XGTACX_site5385] | 8.73 ± 0.37 |
| AAAAAAAAAAAAAAAACACACATGTATACTAGAATA [CACACA_site7108] | 8.94 ± 0.48 |

| Sequence | gcPBM binding intensity (ln) |
| --- | --- |
| TTAAGTTACAATTCTCGTACACATTAAAAGAAAATT [XGTACX_site699] | 8.57 ± 0.39 |
| TATAAGAAATAAAACCTGATTATAAACCTGTAACCA [CACACA_negctrl_site1302] | 8.63 ± 0.37 |
| AAGGCAAACAGACACACACACATATATACCTATATA [CACACA_site7077] | 9.64 ± 0.35 |
| GTTATACACATTACATGTACAAAAGTTGCACTTCAT [XGTACX_site6023] | 9.02 ± 0.5 |
| GTTGCCATCATTTGGCGTACAGTCAAAACCAAATCT [XGTACX_site1398] | 8.56 ± 0.37 |
| TATAACATAAAACACACACACATACATACACAAAAA [CACACA_site1804] | 10.1 ± 0.15 |
| GTTATAAATAAATATACACACATATATAAAATACAT [CACACA_site7146] | 9.08 ± 0.37 |
| AAATTTTTTTTTTAATTTTTTATTTAAAAAAAATAT [TGCATGCA_negctrl_site174] | 8.06 ± 0.46 |
| CGCTTTATTTATATATGTACATATATATATATATAC [XGTACX_site5012] | 9.11 ± 0.35 |
| AAGAGCAACCAAATAGAAAAAGGAAAATAAAAGGAA [CACACA_negctrl_site100] | 8.84 ± 0.69 |
| TCCTATTTTATATAATGTACATAAATATATTACATA [XGTACX_site2720] | 8.6 ± 0.43 |
| TTTGTTCAATTTACATGTACAGATATAATCTAACAT [XGTACX_site370] | 8.84 ± 0.42 |
| TCTATTAAAACAAATTGTACTTATTGATAAAGAATA [XGTACX_site3645] | 8.21 ± 0.42 |
| ATTTTTATTTTATATACACACAATAATAATATAATA [CACACA_site4015] | 8.62 ± 0.36 |
| ATTATATTTTGTAAATGTACATTTATATATTTTGTA [XGTACX_site1226] | 8.84 ± 0.4 |
| AAAAAAAAAAAAAAAGCATGCACATATTATTTTTTT [TGCATGCA_site416] | 8.77 ± 0.26 |
| ATTCATAAACGTGTGTTAATATGAATTTAAACATAA [XGTACX_negctrl_site213] | 8.71 ± 0.46 |
| ATATAAATAAAATATACACACATAAATATAACGACA [CACACA_site1637] | 9.29 ± 0.42 |
